The record followed here is PubChem BioAssay AID1347073 (National Center for Advancing Translational Sciences (NCATS), 2019).

SMILES strings stand for the structures. In all, about 45,000 compounds went through this assay and about 200 (0.44%) were called active. Inconclusive results (about 7%) are left out. Calls follow the shape of the dose curve; as a rule, active = well fitted activation curve with a large enough effect; inconclusive = small, poorly fitted or top-dose-only effect; inactive = no such curve, though single readings can be large or run the other way. The list shows a part of the results.

This test in a line: qHTS of TDP-43 Inhibitors: NCGC Sytravon Library Screen. Also: 0% is about no effect; nearly all actives have a fitted effect of over 55% in size. The conditions noted are these: yeast TDP-43 toxicity rescue, BacTiter-Glo growth, 24 h; series mostly up to 46.1 µM; growth rescue (activation): at the top concentration. The method, boiled down:
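TDP-43-expressing yeast, pregrown in raffinose, seeded at OD600 0.02 in galactose medium with compound for 24 hr at 30 deg C. Growth read by BacTiter-Glo luminescence, so rescue of toxicity appears as activation.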
`O=C(O)c1cccc(S(=O)(=O)Nc2ccccc2Cc2ccccc2)c1`: the “growth rescue (activation)” value was inactive: -2.49%.
The figure for `COc1ccc2[nH]c(C(=O)NCc3ccccc3)c(C)c2c1` is inactive: 11.9%; for `Cc1ccccc1NC(=S)N=Nc1c(O)n(C)c2ccc(S(=O)(=O)N3CCOCC3)cc12` it is inactive: 21.3%; for `Cc1ccc(/C=N/n2c(-c3ccc(Cl)cc3)n[nH]c2=S)s1` it is inactive: 24.9%.
As for `COC(=O)C(Cc1c[nH]c2ccccc12)NC(=O)CNC(C)=O` (centres undefined), the “growth rescue (activation)” value is inactive: 16.6%.
As for `O=C(Nc1nc(-c2ccc(-c3ccccc3)cc2)cs1)c1cnccn1`, the “growth rescue (activation)” value was inactive: 20.4%.
In the case of `OC(COC(c1ccc(Cl)cc1)c1ccc(Cl)cc1)CN1CCc2ccccc2C1` (centres undefined), the “growth rescue (activation)” value is inactive: 11.2%.
Regarding `COc1ccc(NC(=O)COC(=O)C23CC4CC(CC(NC(C)=O)(C4)C2)C3)cc1S(=O)(=O)N1CCOCC1`, the “growth rescue (activation)” value is inactive: -0.559%.
The same measure for `Cc1cccc(N2CCN(c3c4c(nc5nncn35)CCC4)CC2)c1C`: inactive: 5.02%; for `Cc1csc(=O)n1CCC(=O)OCc1nnc(-c2ccccc2Cl)o1`: inactive: 37.2%; for `COc1ccccc1NC(=O)Nc1nnc(C(C)C)s1`: inactive: 10%.
The same measure for `O=C(CNC(=O)c1nn(Cc2ccccc2)c(=O)c2ccccc12)Nc1ccc(F)c(F)c1F`: inactive: 2.24%.
As to `O=[N+]([O-])c1cc(S(=O)(=O)N2CCCC2)ccc1N/N=C1/CCCc2ccccc21`, the “growth rescue (activation)” value is inactive: 2.71%.
The figure for `Nc1nc(SCC(=O)NN(c2ccccc2)c2ccccc2)n[nH]1` is inactive: -8.42%.
The same measure for `Cc1ccc(Cl)cc1NC(=O)CN1CCN(S(=O)(=O)N2CCC(C)CC2)CC1`: inactive: 11.2%; for `NC(CSCc1ccccc1Cl)C(=O)O` (centres undefined): inactive: 1.57%.
The figure for `COCCNC(=O)C(c1ccc(F)cc1)N(CCOC)C(=O)CCC(=O)Nc1ccccn1` (centres undefined) is inactive: 9.83%; for `CN(C(=O)c1ccc(NC(=O)Cc2ccccc2)cc1)c1ccccc1` it is inactive: 12.2%.
Consider `COC(=O)C1CCCCN1C(=O)c1ccc(OC2CCN(C(C)=O)CC2)c(OC)c1` (centres undefined), for which the “growth rescue (activation)” value was inactive: 10.5%.
Turning to `O=C(O)Cc1ccc(S(=O)(=O)Nc2ccccc2C(=O)O)cc1`, the “growth rescue (activation)” value is inactive: -15.7%.
The figure for `Clc1ccc(-c2cccc3nccn23)cc1` is inactive: 13.1%.
The figure for `COc1cccc(N(CC(=O)NCCSc2ccccn2)S(=O)(=O)c2ccccc2)c1` is inactive: -19.5%; for `Nc1nc(-c2ccccc2)cn1/N=C/c1ccccc1` it is inactive: 12.7%; for `COc1ccccc1OC(=O)CCc1nc2ccccc2s1` it is inactive: 14.9%.
Take `CC(C)(O)C#Cc1ccc(C(=O)NCCC(=O)O)s1`: the “growth rescue (activation)” value was inactive: -0.0938%.
The same measure for `O=C(COC(=O)/C=C/c1cccs1)NC(=O)Cc1ccccc1`: inactive: -8.25%; for `C/C(CC(=O)Nc1cccc2c1CCCC2)=N\NC(=O)COc1ccccc1`: inactive: 6.96%.
The figure for `COc1cc(OC)c2cc(C(=O)N[C@@H](Cc3ccccc3)C(=O)O)n(C)c2c1` is inactive: -0.573%.
Regarding `COc1ccc(S(=O)(=O)N(CC(=O)NCc2cccnc2)c2ccc(C)cc2)cc1OC`, the “growth rescue (activation)” value is inactive: 9.95%.
The same measure for `Cc1ccc(N(CC(=O)Nc2c(C)n(C)n(-c3ccccc3)c2=O)S(C)(=O)=O)c(C)c1`: inactive: 6.31%.
The figure for `O=C(O)CCCC(=O)Nc1ccccc1C(=O)N1CCOCC1` is inactive: -34.6%.
The figure for `N=C(N)c1ccc(Cl)cc1` is inactive: -1.78%.
For the molecule `CCC(C)NCCOc1cccc(Br)c1` (centres undefined), the “growth rescue (activation)” value is inactive: -6.96%.
The figure for `CCCc1nnc(NC(=O)CNc2ccc(F)cc2)s1` is inactive: 30.8%.
The same measure for `O=C(CN(C(=O)c1csnn1)c1ccc(F)cc1)NCCc1ccccc1`: inactive: 3.83%; for `O=C(NC(NCc1cccnc1)C(Cl)(Cl)Cl)c1cccc2ccccc12` (centres undefined): inactive: 1.83%.
The same measure for `COc1ccc(OCc2cc(C(=O)N3C[C@H]4CC[C@H]3C4)no2)c(Cl)c1`: inactive: 12.6%; for `NC(=O)c1ccc(NC(=O)COC(=O)CCC2CCCCC2)cc1`: inactive: 11.9%.
As for `COc1ccc(/C=C/C(=O)OCC(=O)Nc2cc(S(=O)(=O)N(C)C)ccc2Cl)cc1`, the “growth rescue (activation)” value was inactive: 12.3%.
The same measure for `C=CSc1sc(Cl)c(N(C)C)c1[N+](=O)[O-]`: inactive: 3.27%; for `Cc1cccc(N(Cc2cc3ccccc3[nH]c2=O)C(=O)c2cccs2)c1`: inactive: -2.45%; for `COc1ccc(C2N(C(C)=O)CCCN2S(=O)(=O)c2ccc(C)cc2)cc1` (centres undefined): inactive: -6.12%.
As for `COc1ccc(Cl)cc1NC(=O)CCNS(=O)(=O)c1cccc2nonc12`, the “growth rescue (activation)” value is inactive: -9.15%.
As for `O=[N+]([O-])c1ccccc1S(=O)(=O)N1CCN(C2CCCC2)CC1`, the “growth rescue (activation)” value is inactive: 5.19%.
The same measure for `O=c1[nH]cnc2scc(-c3ccsc3)c12`: inactive: 30.5%; for `CC(=O)Nc1cccc(-c2ccnc3c2CC(C(=O)Nc2cccc(OC(F)(F)F)c2)O3)c1` (centres undefined): inactive: 4.54%.
The figure for `CCOc1ccccc1NC(=O)COc1ccc(S(=O)(=O)N2CCCC2)cc1` is inactive: 7.08%; for `CCn1c(SCc2ccc([N+](=O)[O-])cc2)nnc1C(C)NC(=O)c1ccc(C)cc1` (centres undefined) it is inactive: 22.9%; for `CCc1ccc(NC(=S)Nc2ccc3[nH]c(=O)[nH]c3c2)cc1` it is inactive: 7.77%.
The figure for `COC(=O)CP(=O)(c1ccccc1)c1ccccc1` is inactive: -20%; for `CCC(C)(C)NC(=O)CN(Cc1ccco1)C(=O)CCC(=O)Nc1nccs1` it is inactive: -0.953%; for `COc1ccc(-n2ncc(C(C)NS(=O)(=O)c3cc(F)ccc3C)c2C)cc1` (centres undefined) it is inactive: 18.7%.
In the case of `O=[N+]([O-])c1cc(S(=O)(=O)Nc2ccccc2)ccc1NCc1cccnc1`, the “growth rescue (activation)” value is inactive: -2.89%.
The same measure for `CCN(CC)c1ccc(CNc2nc3ccccc3n2CCN2CCOCC2)cc1`: inactive: -1.03%.
The figure for `C(=N\Nc1nc2ccccc2[nH]1)/c1ccc2c(c1)OCO2` is inactive: 24%; for `COc1ccc(C(=O)/C=C/Nc2cc(C)ccn2)cc1` it is inactive: 4.21%.
The same measure for `N=c1c(C(=O)NC2CCCCC2)cc2c(=O)n3ccccc3nc2n1CCc1ccccc1`: inactive: -3.71%; for `COc1ccc(C2C(CC(=O)O)=C(O)C(=O)N2c2ccccc2)cc1` (centres undefined): inactive: -0.341%.
Consider `COc1cc(CNC(C)(C)C)cc(Br)c1OCc1cccs1`, for which the “growth rescue (activation)” value is inactive: 10.1%.
The same measure for `O=C(Cn1c(NCCO)nc2ccccc21)Nc1cccc(S(=O)(=O)N2CCCC2)c1`: inactive: 7.33%.
The figure for `O=C1CCCC2=C1C(c1ccsc1)CC(=O)N2c1ccccc1F` (centres undefined) is inactive: 10.9%; for `O=C(COc1ccc(Cl)cc1)Nc1ccc2oc(=O)ccc2c1` it is inactive: -1.74%; for `CC(=O)c1ccc(NC(=O)CSc2cn[nH]n2)cc1` it is inactive: -11.2%.
The figure for `COc1ccc2[nH]c(=O)c(-c3noc(-c4ccccc4)n3)cc2c1` is inactive: 5.32%; for `O=C(NCc1ccncc1)c1ccc(-c2ccc(F)c(F)c2)c2ccoc12` it is inactive: 14.9%.
In the case of `OC(CNCc1ccc(-c2ccccc2)cc1)c1ccccc1` (centres undefined), the “growth rescue (activation)” value was inactive: -1.56%.
The figure for `C/C(CC(=O)Nc1ccc2c(c1)OCCO2)=N\NC(=O)c1cccc(O)c1` is inactive: 11.3%; for `COc1ccc(N2CCN(c3ccnc4cc(Cl)ccc34)CC2)cc1` it is inactive: 6.68%; for `CCCNC(=O)CSc1nc2ccccc2c(=O)n1CCC` it is inactive: 2.08%.
